Measured values: the supplement of paper PMC12632987
In all, about 2,300 sequences were measured (“median log2 fold change of GCK-ALFA target abundance (FLAG IP / Myc IP barcode read proportion)”: median about 0.095, lowest 2% from about -0.47 on). The list shows a part of the results.

B1: LC3A_141_357 (protein)
chain: ATQTRTLTLTATTYDEGEEVADQIGAAIRAFMEATGADTVTLTLTITAYNAETGETTTETETLTVTWENLDMVEEGILISILSQFEKGATKVTVTATITT
B2: LC3A_28_927 (protein)
chain: MTAEEVIEEIREKAREALESGKPAHLEVKIDSSTTVEEAERIMEEVEREVKRLAEAGIEVDITVDLDNVSQEVLDLVAERLDEIIEKYPLASAIIALDEE
B3: LC3A_3_1520 (protein)
chain: MEEIEKEIIKLLKEAGASEETIEKAKELLKLLRERGYLNAMKTLLEELKELKDAPVETIEAFVKDVLELVKTEDLSEEELSKRIKELATIAKNDAEIEEL
B4: LC3A_45_1955 (protein)
chain: MYEATVYVLVPAEHFDAAVAVLREKAAELEREKGVEVRIDPEALAAARAEAAANGEALLEVRIIAEDKETALDAADEIEDAVQAAMPPSVAVAISVEEVP
B5: LC3A_free_46_2306 (protein)
chain: WKAEIDIDLLHEDEEVLKKAVEEIIAAAKEIAEKYGLELEIEVEFEKLEDGSYYAHIKITLKGEKEEDLKKAVNELIDKIDEIAEKYDVSAVISVEIIKE
B6: LC3A_141_376 (protein)
chain: KEVEFELEAKGETPEEVVEKMDELEEKVLKAYEELGGGKVKVKVTLTLTNRETGEVKVVEEEFVGDKETIEMLLDGFLIEAASAVMRAPTDVKLKVVLEK
B7: LC3A_free_8_2486 (protein)
chain: KVEEAKKKISEIIDKAEEEIKKKAKELNADPLDVNELLILLGQAEIYALDYVDKNDEELLKELEDAFKEAIELAKKISEEIAKIVEEAKKKVLEILESLK
B8: LC3A_147_474 (protein)
chain: VRAEVSIDILTKNAEEEVKEKIKEIVEELKEEGYEVELEIKTEKLPDGTTYIEVTITIKAETKEKAEEAANKVIDKLDEIEEELKDKILGSIISVEIIEE
B9: LC3A_28_796 (protein)
chain: SAVDAELARARAEAEAALARGEEALLTVRVGGDTTEEDARRIVEGLEEIVERAASLPRLSILIDLDGDVSQEVIDILAEGGERLEERYPNVNVILALDEE
B10: LC3A_free_46_2367 (protein)
chain: PRAEIDIDFLVETKELAEELAKELEAAIRAIAEKHGVRVEIEVEIIENPDGTYSLRIRIRLEAEDKETLLAAVTAIIDEIDKIAEKFNVSYIISVEVIDE
B11: LC3A_28_700 (protein)
chain: SELEENLKKAEKEAEEAVEKGEDAYIEVKLSGTATKEDIEKVLKRIEEIAEKVTKVGKLYVVVDVDGKLPQENLTLLADGLDEIEEKYPKVSAVIALDED
B12: LC3A_147_441 (protein)
chain: VTITIDILVKTEEAKEKVIEKIKEIVEELKKKGFKVELKIEVEKIDENTYYIKVTIKVEAETEEKAEEAKNLVLDKIDEMEEELKDYILGSIISVEIEKK
B13: LC3A_147_504 (protein)
chain: VKLEVYIDIITKNATEEVKEFVKEIEKELKEKGFEVKVKIKIEKLDEDTDYIEIEIEIKAETEEKAKEAANYIIDKFEEFEEKNKDKILGSLISVEIEKE
B14: LC3A_3_1762 (protein)
chain: MEAFIEAAAKELKEAGASEELIEKASRALRLLLERGLEETAKEFVKVLLELLKKSEELALDLAEDVLTLLETSTLSPEELAKAVRSEMNAALSEAEIEEL
B15: LC3A_free_2_2173 (protein)
chain: MKYELTVDALGKAEDAARLVKAIVDEGVDVEVKLEDGTVLKATAETVDEVVAYLLSLDREVFLELTAVTDKEKAEKTEKALDEVADETGISMLISIEELE
B16: LC3A_free_0_2100 (protein)
chain: MVTKVEVLGIIPDKSAKEAAEAIKEKLEEYGKKLSEEKGWKVTVELTEVDGSYVITVTIEGEGMSIEEGLEIADEIADLIEELAKEHGVEVTIYESVYEE
B17: LC3A_28_1257 (protein)
chain: SPLDENLKKAIEEVKEAVEKGEEAVVTITVPAGITEEEIEKVIKTMEEIAELGKSLKRLTIIIDVEAGVKQEHIDKLADKGEELEKKYPNLTVIIALEEE
B18: LC3A_28_1129 (protein)
chain: MTAEEVIKRAEEEAEKAIKAKEDAYIEVTIPESFTKEDVERIAERLKELAKKIAEVSKVNIVVTFESEKVLPHADIFADTFEELEKEYPNVNVILALPET
B19: LC3A_free_0_2116 (protein)
chain: KKTVVEVLVILDESTTEEEAKKAYEELKKKAEEIAKKYGWEVKVELSKSDGSWIITVTLTSDSTDIDKALEIARELSDAAEEIAKELGLDATIYESVYLE
B20: LC3A_3_1674 (protein)
chain: MEEVIGRLLEAERARGASEEDLAALREALERLLEVSSERVVETLVRLLLEIEDVPVADKIALVRDIVYEIEKNNLSEEEQIALVEREVTALRNGTEIEEL
B21: LC3A_3_1884 (protein)
chain: MEEEIKATLEELKAAGASEETLAAFLRVVELLKERGYEEALKTLIEEVRKLIGLPDELLLAFLEEVLETLETEDLDEEELIERIKEIARLTRNEAEIEEL
B22: LC3A_28_1156 (protein)
chain: SHIDEEIERARAELEAAIAAGEDAVITIKVTGEATQEDIEKLIKALEELAELGEKHGITSIIIDVDEKVKQEHIDKLADAAEEIEAKYPNITIIIALSDE
B23: LC3A_28_705 (protein)
chain: MELEKNIEEALKRAKEAAEKGEEEVIEIKVPSTATEEDIEKVIEALKEIAEIVKDLKRTSIIIDVEGGVKQEYIDKLIDAGEEIEKKYPNVTVIFALDEE
B24: LC3A_3_1662 (protein)
chain: AEELIEETLAWLREQGRSEETLEAAREAMTALKEKGYYEALETFAELLRELADLSDELLLELAEEVLELVETSDLDEESMTEEIREIARTIRSEAEIEEL
B25: LC3A_3_1473 (protein)
chain: LDEKLEATLAKLKAAGASEEVLEAVRKAYEKLKELGFEEAAKTFIEEMDKLVGLPSELLLWFAEEVLRAVEKYKNDEEKLIEEIKKIAAATRAEAEIIEL
B26: LC3A_3_1831 (protein)
chain: MEEELEETIKLLKEAGHSEETIEKLKETVEKLLERGYEEAAKTLLELVKKAIHLPSELLLEALEEILEYIEENDDSEEEVTEKIKEIFNLYENEYEIEEL
B27: LC3A_3_1798 (protein)
chain: MEEKREKLLKLLKEAGKSEEVIEAARETLEALIEKGYEEAYKTLVEELEKLKDIPDEILLEMLEEVLRLVKEEDLSEEELTERIKELARLARLESEIEEL
B28: LC3A_free_8_2546 (protein)
chain: DVQAFADALSKLLDELEEEIEKKAKELGLDRLDILDLSLLVGETIAEALDASEEGQEAALEAAKKGLEEVIEYAKSLSPELAKFVKEKSEEVLKKAEELL
B29: LC3A_3_1725 (protein)
chain: MEEIKKEILEELEKQGKSKETIEAAKKLLDALEKKGFLEAAKTLLEEIKKAKNVSSETLLAALEDLLYIVENEDLDEEEVIEEIKREFRVALEEEEIEEL

What follows are binders tested against MAP1LC3A, Q9H492 (assay: median log2 fold change of GCK-ALFA target abundance (FLAG IP / Myc IP barcode read proportion) (log2 ratio); each designed protein is fused to an ALFA-tag nanobody in HEK293 cells to bring the named protein to FLAG-tagged glucokinase (GCK); Myc marks an untargeted standard; higher = target protein stabilised (more abundant)). Settings: target protein: 3xFLAG-MCP-GCK-ALFA reporter; HEK293 landing pad (RPLP).
Method in brief: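 An ALFA-nanobody-fused binder library was recombined into HEK293 landing-pad cells and induced with 2 μg mL^−1 doxycycline. Cells were transfected with a plasmid expressing a FLAG-tagged target and a Myc-tagged standard. After 48 h, lysates underwent anti-FLAG and anti-Myc immunoprecipitation, and circular RNA barcodes were reverse transcribed, amplified and sequenced. Target abundance is the per-binder median log2 ratio of FLAG to Myc barcode read proportions. Barcodes needed ≥10^−7 proportion in both replicates, binders ≥3 barcodes per replicate, and a 10^−6 pseudocount was added; the two replicates were pooled.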

Binder | median log2 fold change
B1 | -0.285
B2 | 0.131
B3 | 0.547
B4 | 0.0692
B5 | 0.198
B6 | -0.00697
B7 | 0.171
B8 | 0.0901
B9 | -0.158
B10 | 0.0567
B11 | -0.445
B12 | 0.0521
B13 | -0.32
B14 | 0.226
B15 | -0.0273
B16 | -0.121
B17 | 0.24
B18 | -0.0822
B19 | -0.122
B20 | 0.256
B21 | 0.158
B22 | 0.0134
B23 | -0.0511
B24 | -0.0559
B25 | 0.18
B26 | 0.0528
B27 | 0.306
B28 | 0.166
B29 | 0.252
